# Measurements as given in the supplement of paper PMC8728848.
# This is one part of the list.
# B1: Banana lectin (Musa acuminata) (protein)
# chain: MNGAIKVGAWGGNGGSAFDMGPAYRIISVKIFSGDVVDGVDVTFTYYGKTETRHYGGSGGTPHEIVLQEGEYLVGMAGEVANYHGAVVLGKLGFSTNKKAYGPFGNTGGTPFSLPIAAGKISGFFGRGGKFLDAIGVYLEPLEHHHHHH
# What was measured:
# Assay in all cases: glycan array binding signal (z-score within array); higher = stronger binding
# Details in all cases: glycan notation: IUPAC condensed, linker removed
# [1] = biological target: Gal(b1-4)GlcNAc(b1-2)[Gal(b1-4)GlcNAc(b1-4)]Man(a1-3)[GlcNAc(b1-4)][Gal(b1-4)GlcNAc(b1-2)Man(a1-6)]Man(b1-4)GlcNAc(b1-4)GlcNAc
# Summary of the method: (§1)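 Columns mapping to the same glycan were averaged after glycan names were converted to IUPAC-condensed notation. The data come from 3228 arrays in the Consortium for Functional Glycomics database, limited to those with an available protein sequence. Binding is reported as a within-array Z-score averaged across arrays of one protein sequence and across linkers.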
# [2] = biological target: Gal(b1-4)GlcNAc(b1-2)[Gal(b1-4)GlcNAc(b1-4)]Man(a1-3)[GlcNAc(b1-4)][Gal(b1-4)GlcNAc(b1-2)[Gal(b1-4)GlcNAc(b1-6)]Man(a1-6)]Man(b1-4)GlcNAc(b1-4)GlcNAc
# Summary of the method: as §1
# [3] = biological target: Gal(b1-4)GlcNAc(b1-2)[Gal(b1-4)GlcNAc(b1-6)]Man(a1-6)[Gal(b1-4)GlcNAc(b1-2)Man(a1-3)]Man(b1-4)GlcNAc(b1-4)GlcNAc
# Summary of the method: as §1
# [4] = biological target: Gal(b1-4)GlcNAc(b1-2)[Gal(b1-4)GlcNAc(b1-6)]Man(a1-6)[Gal(b1-4)GlcNAc(b1-2)Man(a1-3)]Man(b1-4)GlcNAc(b1-4)[Fuc(a1-6)]GlcNAc
# Summary of the method: as §1
# [5] = biological target: Gal(b1-4)GlcNAc(b1-2)[Gal(b1-4)GlcNAc(b1-6)]Man(a1-6)[GlcNAc(b1-4)][Gal(b1-4)GlcNAc(b1-2)Man(a1-3)]Man(b1-4)GlcNAc(b1-4)GlcNAc
# Summary of the method: as §1
# [6] = biological target: Gal(b1-4)GlcNAc(b1-2)[Gal(b1-4)GlcNAc(b1-6)]Man(a1-6)[GlcNAc(b1-4)][Gal(b1-4)GlcNAc(b1-2)[Gal(b1-4)GlcNAc(b1-4)]Man(a1-3)]Man(b1-4)GlcNAc(b1-4)[Fuc(a1-6)]GlcNAc
# Summary of the method: as §1
# [7] = biological target: Gal(b1-4)GlcNAc(b1-3)Gal(b1-3)GalNAc
# Summary of the method: as §1
# [8] = biological target: Gal(b1-4)GlcNAc(b1-3)Gal(b1-3)GlcNAc
# Summary of the method: as §1
# [9] = biological target: Gal(b1-4)GlcNAc(b1-3)Gal(b1-4)Glc
# Summary of the method: as §1
# [10] = biological target: Gal(b1-4)GlcNAc(b1-3)Gal(b1-4)GlcNAc
# Summary of the method: as §1
# [11] = biological target: Gal(b1-4)GlcNAc(b1-3)Gal(b1-4)GlcNAc(b1-2)Man(a1-3)[Gal(b1-4)GlcNAc(b1-3)Gal(b1-4)GlcNAc(b1-2)Man(a1-6)]Man(b1-4)GlcNAc(b1-4)GlcNAc
# Summary of the method: as §1
# [12] = biological target: Gal(b1-4)GlcNAc(b1-3)Gal(b1-4)GlcNAc(b1-2)Man(a1-3)[Gal(b1-4)GlcNAc(b1-3)Gal(b1-4)GlcNAc(b1-2)Man(a1-6)]Man(b1-4)GlcNAc(b1-4)[Fuc(a1-6)]GlcNAc
# Summary of the method: as §1
# [13] = biological target: Gal(b1-4)GlcNAc(b1-3)Gal(b1-4)GlcNAc(b1-2)[Gal(b1-4)GlcNAc(b1-3)Gal(b1-4)GlcNAc(b1-6)]Man(a1-6)[Gal(b1-4)GlcNAc(b1-3)Gal(b1-4)GlcNAc(b1-2)Man(a1-3)]Man(b1-4)GlcNAc(b1-4)GlcNAc
# Summary of the method: as §1
# [14] = biological target: Gal(b1-4)GlcNAc(b1-3)Gal(b1-4)GlcNAc(b1-2)[Gal(b1-4)GlcNAc(b1-3)Gal(b1-4)GlcNAc(b1-6)]Man(a1-6)[Gal(b1-4)GlcNAc(b1-3)Gal(b1-4)GlcNAc(b1-2)Man(a1-3)]Man(b1-4)GlcNAc(b1-4)[Fuc(a1-6)]GlcNAc
# Summary of the method: as §1
# [15] = biological target: Gal(b1-4)GlcNAc(b1-3)Gal(b1-4)GlcNAc(b1-3)Gal(b1-4)GlcNAc
# Summary of the method: as §1
# [16] = biological target: Gal(b1-4)GlcNAc(b1-3)Gal(b1-4)GlcNAc(b1-3)Gal(b1-4)GlcNAc(b1-2)Man(a1-3)[Gal(b1-4)GlcNAc(b1-3)Gal(b1-4)GlcNAc(b1-3)Gal(b1-4)GlcNAc(b1-2)Man(a1-6)]Man(b1-4)GlcNAc(b1-4)GlcNAc
# Summary of the method: as §1
# [17] = biological target: Gal(b1-4)GlcNAc(b1-3)Gal(b1-4)GlcNAc(b1-3)Gal(b1-4)GlcNAc(b1-2)Man(a1-3)[Gal(b1-4)GlcNAc(b1-3)Gal(b1-4)GlcNAc(b1-3)Gal(b1-4)GlcNAc(b1-2)Man(a1-6)]Man(b1-4)GlcNAc(b1-4)[Fuc(a1-6)]GlcNAc
# Summary of the method: as §1
# [18] = biological target: Gal(b1-4)GlcNAc(b1-3)Gal(b1-4)GlcNAc(b1-3)Gal(b1-4)GlcNAc(b1-2)[Gal(b1-4)GlcNAc(b1-3)Gal(b1-4)GlcNAc(b1-3)Gal(b1-4)GlcNAc(b1-6)]Man(a1-6)[Gal(b1-4)GlcNAc(b1-3)Gal(b1-4)GlcNAc(b1-3)Gal(b1-4)GlcNAc(b1-2)Man(a1-3)]Man(b1-4)GlcNAc(b1-4)[Fuc(a1-6)]GlcNAc
# Summary of the method: as §1
# [19] = biological target: Gal(b1-4)GlcNAc(b1-3)Gal(b1-4)GlcNAc(b1-3)Gal(b1-4)GlcNAc(b1-3)Gal(b1-4)GlcNAc(b1-2)Man(a1-3)[Gal(b1-4)GlcNAc(b1-3)Gal(b1-4)GlcNAc(b1-3)Gal(b1-4)GlcNAc(b1-3)Gal(b1-4)GlcNAc(b1-2)Man(a1-6)]Man(b1-4)GlcNAc(b1-4)GlcNAc
# Summary of the method: as §1
# [20] = biological target: Gal(b1-4)GlcNAc(b1-3)Gal(b1-4)GlcNAc(b1-3)Gal(b1-4)GlcNAc(b1-3)Gal(b1-4)GlcNAc(b1-2)Man(a1-3)[Gal(b1-4)GlcNAc(b1-3)Gal(b1-4)GlcNAc(b1-3)Gal(b1-4)GlcNAc(b1-3)Gal(b1-4)GlcNAc(b1-2)Man(a1-6)]Man(b1-4)GlcNAc(b1-4)[Fuc(a1-6)]GlcNAc
# Summary of the method: as §1
# [21] = biological target: Gal(b1-4)GlcNAc(b1-3)Gal(b1-4)GlcNAc(b1-3)Gal(b1-4)GlcNAc(b1-3)Gal(b1-4)GlcNAc(b1-2)[Gal(b1-4)GlcNAc(b1-3)Gal(b1-4)GlcNAc(b1-3)Gal(b1-4)GlcNAc(b1-3)Gal(b1-4)GlcNAc(b1-6)]Man(a1-6)[Gal(b1-4)GlcNAc(b1-3)Gal(b1-4)GlcNAc(b1-3)Gal(b1-4)GlcNAc(b1-3)Gal(b1-4)GlcNAc(b1-2)Man(a1-3)]Man(b1-4)GlcNAc(b1-4)[Fuc(a1-6)]GlcNAc
# Summary of the method: as §1
# [22] = biological target: Gal(b1-4)GlcNAc(b1-3)Gal(b1-4)GlcNAc(b1-3)Gal(b1-4)GlcNAc(b1-3)Gal(b1-4)GlcNAc(b1-3)Gal(b1-4)GlcNAc(b1-2)Man(a1-3)[Gal(b1-4)GlcNAc(b1-3)Gal(b1-4)GlcNAc(b1-3)Gal(b1-4)GlcNAc(b1-3)Gal(b1-4)GlcNAc(b1-3)Gal(b1-4)GlcNAc(b1-2)Man(a1-6)]Man(b1-4)GlcNAc(b1-4)GlcNAc
# Summary of the method: as §1
# [23] = biological target: Gal(b1-4)GlcNAc(b1-3)Gal(b1-4)GlcNAc(b1-3)Gal(b1-4)GlcNAc(b1-3)Gal(b1-4)GlcNAc(b1-3)Gal(b1-4)GlcNAc(b1-2)Man(a1-3)[Gal(b1-4)GlcNAc(b1-3)Gal(b1-4)GlcNAc(b1-3)Gal(b1-4)GlcNAc(b1-3)Gal(b1-4)GlcNAc(b1-3)Gal(b1-4)GlcNAc(b1-2)Man(a1-6)]Man(b1-4)GlcNAc(b1-4)[Fuc(a1-6)]GlcNAc
# Summary of the method: as §1
binder,measurement,setting,value
B1,glycan array binding signal (z-score),[1],-0.218
same,glycan array binding signal (z-score),[2],-0.231
same,glycan array binding signal (z-score),[3],-0.039
same,glycan array binding signal (z-score),[4],-0.171
same,glycan array binding signal (z-score),[5],-0.193
same,glycan array binding signal (z-score),[6],-0.204
same,glycan array binding signal (z-score),[7],-0.226
same,glycan array binding signal (z-score),[8],-0.219
same,glycan array binding signal (z-score),[9],-0.22
same,glycan array binding signal (z-score),[10],-0.205
same,glycan array binding signal (z-score),[11],-0.183
same,glycan array binding signal (z-score),[12],-0.094
same,glycan array binding signal (z-score),[13],-0.099
same,glycan array binding signal (z-score),[14],0.143
same,glycan array binding signal (z-score),[15],-0.23
same,glycan array binding signal (z-score),[16],-0.174
same,glycan array binding signal (z-score),[17],-0.149
same,glycan array binding signal (z-score),[18],-0.13
same,glycan array binding signal (z-score),[19],-0.158
same,glycan array binding signal (z-score),[20],-0.154
same,glycan array binding signal (z-score),[21],-0.101
same,glycan array binding signal (z-score),[22],-0.167
same,glycan array binding signal (z-score),[23],-0.202
